The source gives no read counts; variants with many changes may rest on few reads.

To fix the notation:
B1: OR4K15 (parent)
chain: GUUAACGGUCAUAGGCCAUGGAAACUAGGAGCACCAUUUCGCUGCCAGUGAAGAAAUGAACAAAGAAAAUCUGGGCCAGGCAGGCAUCAAAAGAAAUAGUCUUGCGCUCAACCAGAAAGUCUGUAAUCAUUUUAAGGGUA

The variants in the data set derive from B1. The data set is described as follows: self-cleavage, relative activity (ratio to wild type); higher = more cleavage; in vitro, sequencing; the parent is a self-cleaving ribozyme.
For A52U A125U A129U, the self-cleavage was 0.76.
In the case of A52G U57G A66G, the self-cleavage was 1.35.
Regarding A56G A90G U102A A114U, the self-cleavage amounted to 0.
As for A54U A82G A111G, the figure is 0.06; as for A55U A60G A117G U131C, 0.39; as for A56G A78U U87C A95G, 0.37.
For A54G A62G A94G, the self-cleavage was 1.39.
As for A54G A63G A114U U127C, the figure is 0.02.
As to A54G U57G A89U A117U, the self-cleavage came to 0.65.
In the case of G53U A96G U100C A116G A118G, the self-cleavage was determined as 0.32.
For the variant A55G A64C A82G, the self-cleavage was found to be 0.38.
As to A52G A78U U102C G123A, the self-cleavage turned out to be 1.4.
As to A55C U57C C76U, the self-cleavage stood at 0.17.
Regarding A54G A55G A98G, the self-cleavage worked out at 0.49.
For the variant A55G A82G A98G, the self-cleavage was determined as 0.11.
A55G U87C U131C: the self-cleavage amounted to 1.74.
Take A56G A67U U87C U102C A135U: the self-cleavage turned out to be 2.62.
For A52G U57C A118G, the self-cleavage turned out to be 0.76.
Consider A54G G58U C101A A117G, for which the self-cleavage amounted to 0.05.
As for A55G A62G U139C, the figure is 1.38.
For A56G C105A U124C A125G G138A, the self-cleavage came to 0.
Take A55G A86G A96G: the self-cleavage was determined as 0.39.
As to A55G A78U U87C U122A, the self-cleavage worked out at 0.1.
Regarding A55U A96G U108C U139C, the self-cleavage was determined as 0.01.
Next, G53U A66G U122A: 0.91.
For G53U U87C U108C, the self-cleavage stood at 0.02.
As to A54U A95G A114C G123A, the self-cleavage was 0.07.
Next, A52G U57C U70C: 0.25; G53A A69U U72C A118G U127C: 0.03.
A55G A114G U139C: the self-cleavage was 0.47.
As to A56C A78U A140U, the self-cleavage was 0.14.
For the variant A55G A60G A64U A82U, the self-cleavage was determined as 0.15.
Next, A54G A63G A82G A91C U102C U130C: 0.86.
Take A54G U57A A66G C88A: the self-cleavage stood at 1.25.
With G53U A59G C77U, the self-cleavage came to 1.73.
On to A56G A63U A111G, for which the self-cleavage is 0.03.
As to A52U A111G U120C, the self-cleavage came to 0.
As to A54U U100C A129G, the self-cleavage came to 2.53.
In the case of A55G A67C A110G A114G A126G, the self-cleavage came out at 0.1.
Turning to A54G A55G A116G A135U, the self-cleavage came to 0.44.
A54G A68G A98G U108C: the self-cleavage amounted to 0.01.
On to A56G A67G C81U, for which the self-cleavage came to 0.39.
Consider A52U A60C U87C U127C, for which the self-cleavage was determined as 1.95.
For the variant A55G A78C U102C, the self-cleavage came to 0.6.
Regarding A54G A60G U100C U103G A110G, the self-cleavage stood at 0.02.
A56G A64G A78G A95G: the self-cleavage amounted to 0.23.
As for A52G A91G A92G, the figure is 1.97.
As for A56G A60G A63G U130C, the figure is 0.91; as for A55G A86G U127C, 0.12; as for A56G A96C A111G U139C, 0.01.
As to G53A A54G A82U A111G, the self-cleavage was 0.04.
Regarding A52G U57A C76U, the self-cleavage was 0.05.
For A56G A60G A111G, the self-cleavage worked out at 0.03.
Next, A56G A64G U131C U132C: 1.4; A52G U122C U130C: 0.68.
As for A54G A94G U102C A134G, the figure is 1.17; as for A56G A67G G119U, 1.1; as for A52G A117G U130C, 0.62.
A52G G79A A140U: the self-cleavage stood at 0.24.
As for A55G A62G U127G A129U U131C, the figure is 1.23; as for A56G A92G G104C G106U G115A, 0.
In the case of A56G A67U A114G U139C A140G, the self-cleavage was 1.81.
As for A52G A96G C113U, the figure is 0.04.
A55G U100A C121G: the self-cleavage amounted to 1.03.
In the case of A52G A82U A90G, the self-cleavage turned out to be 0.19.
A56G A62C U130G: the self-cleavage worked out at 1.02.
Take A54U A60G U139C: the self-cleavage was 0.8.
Consider A56G A59G A125G, for which the self-cleavage was 0.3.
As for A55G A63C U130C, the figure is 1.33.
Consider A55G A86G A117G, for which the self-cleavage was 0.6.
With A52G A78U A110G, the self-cleavage came out at 0.09.
As for A55G A95U A111U, the figure is 0.04; as for A54G U108C U127C A129G U131C, 0.
With A54G A90U A116G, the self-cleavage stood at 0.29.
For the variant A54U A60G U72A A110G U132C, the self-cleavage was determined as 0.02.
As for A55G A64G U103C U131C U132C, the figure is 0.78; as for A52G G80A U100C A129G, 0.43.
Take A54G A118G A135G: the self-cleavage amounted to 1.31.
Consider A56G A110G U127C, for which the self-cleavage is 0.06.
As for A56G A69G G74U A90G U130C, the figure is 0.11; as for A54G A69G U108C, 0.05; as for G53U A60G A94G U97C A98G A140G, 1.07.
Consider A55G A110G A114U, for which the self-cleavage came to 0.03.
As to A52U A59G C61U A69G A78G U87G A89G, the self-cleavage is 0.12.
Take A55G A59G U122C: the self-cleavage turned out to be 0.6.
As for A56G A86G A92G, the figure is 1.03; as for A55G A59U A60G, 1.33; as for A55G A60G A67G U70C A114C, 0.02.
Consider A54G A126G U127C, for which the self-cleavage worked out at 0.21.
With A55G A78G U102C, the self-cleavage came to 0.25.
On to A55U A63G U100C A118G, for which the self-cleavage was 1.3.
For A55G A78G C113G, the self-cleavage was determined as 0.02.
With A54G A92G U133C U139C, the self-cleavage is 1.91.
A54G U130C A134G: the self-cleavage amounted to 0.83.
Consider A54G A90C A98G, for which the self-cleavage stood at 0.19.
Next, A54G U97C U127C: 0.59; A55G A56G A126G U130C: 0.46; A52G U57C U108C U127C: 0.01.
Next, A52U A86U A89G U120C A134G: 1.27.
In the case of A55G A60G U87C, the self-cleavage amounted to 0.46.
On to A54G A56G U70C U127C, for which the self-cleavage came to 0.43.
Consider A52G A82U A89G A118G, for which the self-cleavage is 0.11.
In the case of A56G C76U U102A, the self-cleavage worked out at 0.05.
Consider A56C G79A A89G U127C, for which the self-cleavage is 0.07.
With A55G A82G A86G A117G, the self-cleavage turned out to be 0.28.
As to A56G A66G U87C, the self-cleavage is 1.75.
In the case of A54G U57A A135U, the self-cleavage turned out to be 2.05.
On to G53A U97C U132A, for which the self-cleavage stood at 1.28.
As to A54C A63G U124C, the self-cleavage was 0.45.
As for A52U G74U A90G U103C, the self-cleavage was 0.04.
Consider A54G A66G A89G, for which the self-cleavage stood at 1.39.
Consider A54G A98C C109U A116G A117G U139C, for which the self-cleavage turned out to be 0.04.
Turning to A54G A82G A90G U122A, the self-cleavage was determined as 0.06.
Next, A56G A69G U97G A111G: 0.01; A55G A60U A91G A98G: 0.32.
Next, A55G A64G U127C: 1.38; A52G U100A A118G A129U: 0.14.
A54G A89U U108C: the self-cleavage turned out to be 0.01.
Next, A56G A60G A116G A134G: 0.14.
Take A52U A78G A117G: the self-cleavage came out at 0.51.
As for A56G A116G A129G, the figure is 0.13; as for A56G A67G A91U A94G U102C C109U, 0.37.
With A55U U57C A95G A117G, the self-cleavage was 2.32.
Consider A55G A56C A92G U103A, for which the self-cleavage was 0.21.
Turning to A55G A66G G74A A111G U120C, the self-cleavage stood at 0.01.
For the variant G53U A126G A129G, the self-cleavage amounted to 0.72.
Consider A56G C77U U122C, for which the self-cleavage was found to be 1.69.
Regarding A54G A78G A111G, the self-cleavage amounted to 0.04.
With A52U U57C U70C U97A A111G U122A A129G, the self-cleavage came to 0.
With A54G A82U A90G C109U A126G U127A, the self-cleavage was determined as 0.02.
As for A54G A135U A140G, the figure is 2.97; as for A54G A78G U131C A140G, 0.15.
As for A54G A129G U131C, the self-cleavage amounted to 0.09.
A55G A59U A140G: the self-cleavage was determined as 1.57.
In the case of A55G A63G G74U A118G, the self-cleavage is 0.09.
Next, A54G A69G G119A: 1.17.
As for A52G U108C A135U, the figure is 0.01; as for A55G A66G A117C, 0.41.
In the case of A55G A78U A96G, the self-cleavage stood at 0.37.
As for A55G A116G U124C, the figure is 0.11; as for A55G A64G A140U, 1.58.
As for A54U A69U A96G, the self-cleavage was found to be 2.01.
For the variant A56G A91G A94G U130A, the self-cleavage stood at 1.05.
On to A56G A60G A82G U139C, for which the self-cleavage worked out at 0.21.
As for A56G A89G A111G, the figure is 0.12; as for A55G A82C U120C, 0.13.
Regarding A54G A55G A59U U70C U97C A117G, the self-cleavage worked out at 0.44.
A52G C71A A78U: the self-cleavage was determined as 0.19.
For the variant G53C A111G U122C, the self-cleavage was found to be 0.01.
As for A56G A129G A134G, the self-cleavage is 1.18.
Take A52G A86G U108C: the self-cleavage turned out to be 0.
Regarding A55G U70C A96G, the self-cleavage was found to be 1.48.
Next, A54G C77U A134G: 1.15.
A54G A89G A111G: the self-cleavage came out at 0.03.
Regarding A55G A110G A118U U127C, the self-cleavage was found to be 0.01.
Take A55G A64G A89G U102C: the self-cleavage was found to be 1.1.
Next, A52G U70C A117C: 0.17.
Regarding A56G A91G A95G, the self-cleavage was 1.37.
Consider A56G A60G G75C, for which the self-cleavage amounted to 0.1.
Turning to A52U A67G U87C U131C U139C, the self-cleavage is 1.62.
As for A56G A59G U103C A117G, the figure is 0.67; as for A56G A64G U70G A92G A111G, 0.02.
As to A54G C85U U87C, the self-cleavage came to 0.88.
A55G A118G U131C: the self-cleavage came to 0.83.
For A55G C71U A82G, the self-cleavage was found to be 0.36.
Next, A54G U72C G83A A111C: 0.01.
For the variant A55G A67U C85U, the self-cleavage was 0.82.
